# Source: PubChem BioAssay (Tox21)
# This list was built around the results that the source calls inconclusive (neither active nor inactive); the mix of calls is not that of the screen. For some assays here: Potencies of inconclusive entries are left out as doubtful fits. The source made the active and inactive calls. Unless noted, calls follow the shape of the dose curve; as a rule, active = well fitted curve in the direction sought with a large enough effect in the repeat runs; inconclusive = weak or mixed curves; inactive = no such curve, though single readings can be large; an effect the other way counts as inactive or inconclusive.
# Assays:
# [1] = qHTS assay for identifying genotoxic compounds that show differential cytotoxicity against isogenic chicken DT40 cell lines with known DNA damage response pathways - wild type cell line (AID 743012); settings: DT40 wild type chicken cells viability, CellTiter-Glo, 40 h; activity change, negative = cytotoxicity: at 68.4 µM (top of the series) unless noted; also: nearly all actives have a fitted effect of over 60% in size; also: potency is read from the fitted curve at half-maximal effect; as to activity change, negative = cytotoxicity: % is scaled to controls: 0 for no effect and ±100 for the full control effect
# Outline: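 Parental DNA repair-proficient DT40 cells, 300 per well, were pre-incubated ~0.5 h at 37 C/5% CO2, pin-dosed with compounds in DMSO, then incubated 40 h. Viability was read as CellTiter-Glo luminescence after 30 min at room temperature.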
# [2] = qHTS assay for identifying genotoxic compounds that show differential cytotoxicity against isogenic chicken DT40 cell lines with known DNA damage response pathways - Rev3 mutant cell line (AID 743014); settings: chicken DT40 Rev3-/- viability, CellTiter-Glo, 40 h; activity, negative = cytotoxicity: at 68.4 µM (top of the series); also: potency is read from the fitted curve at half-maximal effect; nearly all actives have a fitted effect of over 55% in size
# [3] = qHTS assay for identifying genotoxic compounds that show differential cytotoxicity against isogenic chicken DT40 cell lines with known DNA damage response pathways - Rad54/Ku70 mutant cell line (AID 743015); settings: DT40 Rad54/Ku70 mutant viability, CellTiter-Glo, 40 h; activity change, negative = cytotoxicity: at 66.8 µM (top of the series); also: nearly all actives have a fitted effect of over 60% in size; also: potency is read from the fitted curve at half-maximal effect
# [4] = qHTS assay to identify small molecule antagonists of the androgen receptor (AR) signaling pathway - cell viability counter screen (AID 743033; also: nearly all actives have a fitted effect of over 45% in size; also: potency is read from the fitted curve at half-maximal effect); settings: AR-bla HEK293 viability, CellTiter-Glo luminescence, 16 h; activity change, negative = cytotoxicity: at 58.5 µM (top of the series) unless noted
# [5] = qHTS assay to identify small molecule antagonists of the glucocorticoid receptor (GR) signaling pathway - cell viability counter screen (AID 720693); settings: GR-bla HeLa viability, CellTiter-Glo luminescence, 18 h, with 5 nM dexamethasone present; viability change, negative = cytotoxic: at 58.5 µM (top of the series) unless noted; also: % is scaled to controls: 0 for no effect and ±100 for the full control effect; nearly all actives have a fitted effect of over 55% in size
# [6] = qHTS assay to identify small molecule antagonists of the estrogen receptor alpha (ER-alpha) signaling pathway using the BG1 cell line - cell viability counter screen (AID 743081); settings: BG1Luc4E2 viability, CellTiter-Fluor, 22 h; activity change, negative = cytotoxicity: at 70.3 µM (top of the series) unless noted;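 also: compound given together with 17beta-estradiol as the ER stimulus; % is scaled to controls: 0 for no effect and ±100 for the full control effect; nearly all actives have a fitted effect of over 45% in size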
# [7] = biological target: Androgen receptor (Homo sapiens) (UniProt P10275); test: qHTS assay to identify small molecule antagonists of the androgen receptor (AR) signaling pathway (AID 743035; active = well fitted inhibition curve with a large enough effect in the signal ratio in the repeat runs, not every such curve was filed as active; inconclusive = weak or mixed curves, or effect the other way; inactive = no such curve, though single readings can be large or run the other way; the % refers to the signal ratio; also: % is scaled to controls: 0 for no effect and ±100 for the full control effect); settings: HEK293 AR-UAS-bla, R1881-stimulated, beta-lactamase FRET, 16 h; activity change, negative = inhibition: at 58.5 µM (top of the series) unless noted
# Outline: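 HEK293 cells stably carrying a UAS-driven beta-lactamase reporter (AR-UAS-bla GripTite) were plated for 4 h at 37C, then given compound and the agonist R1881 and incubated 16 h. Reporter activity was read by LiveBLAzer B/G FRET fluorescence after 2 h at room temperature.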
# [8] = biological target: Androgen receptor (Homo sapiens) (UniProt P10275); test: qHTS assay to identify small molecule agonists of the androgen receptor (AR) signaling pathway (AID 743036; active = well fitted activation curve with a large enough effect in the signal ratio in the repeat runs, with a control signal flat, not every such curve was filed as active; inconclusive = weak or mixed curves, or effect the other way; inactive = no such curve, though single readings can be large or run the other way; the % refers to the signal ratio; also: % is scaled to controls: 0 for no effect and ±100 for the full control effect); settings: HEK293 AR-UAS-bla GripTite, beta-lactamase FRET ratio, 16 h; activation: at 62.4 µM (top of the series) unless noted
# Outline: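 Quantitative HTS of the Tox21 10K library in HEK293 cells bearing a stably integrated UAS-controlled beta-lactamase reporter. Compound exposure lasted 16 h at 37C. Reporter activity was detected by FRET substrate fluorescence after 2 h at room temperature.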
# [9] = qHTS assay to identify small molecule antagonists of the thyroid receptor (TR) signaling pathway - cell viability counter screen (AID 743064); settings: GH3.TRE-Luc viability, CellTiter-Fluor, 24 h; activity change, negative = cytotoxic: at 70.3 µM (top of the series) unless noted; also: potency is read from the fitted curve at half-maximal effect; nearly all actives have a fitted effect of over 50% in size
# Outline: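 Rat GH3 pituitary tumor cells stably expressing two TR response elements driving luciferase were plated, rested 4 h, then dosed with library compounds and T3 (1 nM final). After 23.5 h at 37 °C, CellTiter-Fluor was added for 30 min and fluorescence recorded.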
# [10] = system: thyroid hormone receptor (rat, GH3 cells); test: qHTS assay to identify small molecule agonists of the thyroid receptor (TR) signaling pathway (AID 743066; calls by dose curve; also: % is scaled to controls: 0 for no effect and ±100 for the full control effect); settings: GH3.TRE-Luc cells, TR agonist luciferase, 24 h; activation: at 83.9 µM (top of the series) unless noted
# [11] = biological target: Estrogen receptor (Homo sapiens) (UniProt P03372); test: qHTS assay to identify small molecule agonists of the estrogen receptor alpha (ER-alpha) signaling pathway using the BG1 cell line (AID 743079); settings: BG1Luc4E2 cells, ERE-luciferase agonist, 22 h; activation: at 70.3 µM (top of the series) unless noted; also: % is scaled to controls: 0 for no effect and ±100 for the full control effect; nearly all actives have a fitted effect of over 20% in size
# Tags tell the direction and shape of the fitted curve.
# UniProt P10275, sequence (P10275 whole entry, looked up): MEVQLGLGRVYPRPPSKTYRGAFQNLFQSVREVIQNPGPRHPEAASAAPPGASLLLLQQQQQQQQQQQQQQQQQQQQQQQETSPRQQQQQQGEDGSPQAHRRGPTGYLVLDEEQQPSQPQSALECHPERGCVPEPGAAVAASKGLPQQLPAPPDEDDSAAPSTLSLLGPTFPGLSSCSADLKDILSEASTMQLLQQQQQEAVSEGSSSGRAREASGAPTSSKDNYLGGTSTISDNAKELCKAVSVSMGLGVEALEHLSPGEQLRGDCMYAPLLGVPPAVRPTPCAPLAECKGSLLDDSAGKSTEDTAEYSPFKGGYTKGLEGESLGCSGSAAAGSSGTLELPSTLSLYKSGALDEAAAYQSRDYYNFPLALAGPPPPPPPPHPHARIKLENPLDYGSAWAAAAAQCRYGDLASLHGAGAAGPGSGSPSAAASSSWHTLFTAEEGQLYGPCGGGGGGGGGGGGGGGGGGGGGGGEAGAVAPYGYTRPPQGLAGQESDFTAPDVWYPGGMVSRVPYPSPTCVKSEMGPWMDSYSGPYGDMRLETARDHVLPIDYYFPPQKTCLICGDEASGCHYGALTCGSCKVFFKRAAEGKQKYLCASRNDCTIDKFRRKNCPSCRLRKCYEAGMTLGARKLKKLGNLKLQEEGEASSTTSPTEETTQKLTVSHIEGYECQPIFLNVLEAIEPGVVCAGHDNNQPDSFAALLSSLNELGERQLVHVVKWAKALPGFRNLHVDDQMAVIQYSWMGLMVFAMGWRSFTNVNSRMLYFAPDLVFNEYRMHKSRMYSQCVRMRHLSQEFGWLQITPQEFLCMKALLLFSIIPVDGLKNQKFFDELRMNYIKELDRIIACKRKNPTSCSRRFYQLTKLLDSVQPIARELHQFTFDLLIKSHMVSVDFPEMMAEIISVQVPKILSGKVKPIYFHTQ
# UniProt P03372, sequence (P03372 whole entry, looked up): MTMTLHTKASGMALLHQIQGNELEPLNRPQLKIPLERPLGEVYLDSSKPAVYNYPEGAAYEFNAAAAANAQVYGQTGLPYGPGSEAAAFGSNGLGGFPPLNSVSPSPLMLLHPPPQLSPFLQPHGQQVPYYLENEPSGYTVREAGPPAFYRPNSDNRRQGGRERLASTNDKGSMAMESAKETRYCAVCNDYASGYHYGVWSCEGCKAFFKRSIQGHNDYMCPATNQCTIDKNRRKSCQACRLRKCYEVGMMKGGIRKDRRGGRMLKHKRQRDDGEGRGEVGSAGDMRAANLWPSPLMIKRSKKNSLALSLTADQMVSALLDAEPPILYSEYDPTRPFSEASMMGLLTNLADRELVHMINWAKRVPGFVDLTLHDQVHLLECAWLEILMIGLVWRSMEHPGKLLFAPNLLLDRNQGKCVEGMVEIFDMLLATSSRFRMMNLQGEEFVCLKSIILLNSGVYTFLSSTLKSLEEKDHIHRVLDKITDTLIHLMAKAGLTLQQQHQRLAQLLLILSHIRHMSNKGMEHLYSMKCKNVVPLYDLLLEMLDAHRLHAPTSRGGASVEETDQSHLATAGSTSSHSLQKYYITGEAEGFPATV
structure (smiles),measurement,setting,value
O=C(O)C(O)[C@H](O)[C@@H](O)[C@H](O)[C@H](O)CO (stereo partly drawn),Potency,[1],inactive
CCOC(=O)COc1ccc(C)cc1,Potency,[1],"inconclusive [cytotoxic, single point]"
same,Potency,[2],"inconclusive [cytotoxic, single point]"
COc1cc(/C=C/C(=O)O[C@H]2CC[C@]34C[C@]35CC[C@]3(C)[C@@H]([C@H](C)CCC=C(C)C)CC[C@@]3(C)[C@@H]5CC[C@H]4C2(C)C)ccc1O,Potency,[1],inactive
same,Potency,[2],"inconclusive [rising, partial curve, poor fit]"
same,Potency,[3],inactive
same,Potency,[4],inactive
CN[C@@H]1[C@@H](O)[C@@H](O[C@@H]2[C@H](O)[C@H](O[C@H]3OC(CN)=CC[C@H]3N)[C@@H](N)C[C@H]2N)OCC1(C)O (stereo partly drawn),"viability change, negative = cytotoxic",[5],inconclusive: -4.4%
same,Potency,[6],inactive
Cc1cc(C)c(N=Nc2c(O)c(S(=O)(=O)O)cc3cc(S(=O)(=O)O)ccc23)cc1C,"activity change, negative = cytotoxicity",[1],inactive: -7.67% [at 8.52 µM]
CN(C)c1ccc(/C=C/c2ccc([N+](=O)[O-])cc2)cc1,Potency,[1],"inconclusive [rising, full curve, poor fit]"
CCCCCCCCCCCCN1CCOCC1,Potency,[1],active: 27.3 µM
same,Potency,[2],active: 8.63 µM
CC(C)CCCC(C)CCO (stereo not drawn),Potency,[1],"inconclusive [cytotoxic, single point]"
same,Potency,[2],"inconclusive [cytotoxic, single point]"
same,Potency,[3],"inconclusive [cytotoxic, single point]"
same,Potency,[4],"inconclusive [cytotoxic, partial curve, poor fit]"
same,Potency,[7],inactive
same,Potency,[8],inactive
same,Potency,[9],"inconclusive [rising, partial curve, poor fit]"
same,Potency,[10],inactive
same,activation,[11],inconclusive: 5.05% [phenotype inactive]
same,Potency,[6],inactive
